Data reported in publication PMC2373926.
These are yes or no findings as the source states them, for the method shown. For some assays here: In cells and extracts the contact can be indirect. Some entries that bind do so weakly or less than the wild type. Sequences can lack the tags named with a protein.

T1: GST C-terminal Bves (UniProt Q9DG23)
T1 sequence: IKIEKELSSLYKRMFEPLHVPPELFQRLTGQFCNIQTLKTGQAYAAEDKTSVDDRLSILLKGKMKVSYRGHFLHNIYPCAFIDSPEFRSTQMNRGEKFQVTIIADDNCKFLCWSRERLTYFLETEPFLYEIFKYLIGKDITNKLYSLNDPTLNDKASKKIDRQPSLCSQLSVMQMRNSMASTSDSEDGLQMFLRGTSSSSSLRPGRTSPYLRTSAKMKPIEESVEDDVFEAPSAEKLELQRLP

T2: Peptide 12: …
T2 sequence (peptide): TLNDKASKKIDRQ

T3: Peptide 10 (SPOTs 13-mer of C-terminal Bves) (UniProt Q9DG23)
T3 sequence (peptide): YSLNDPTLNDKAS

T4: Peptide 12 with lysine 273 substituted with alanine (UniProt Q9DG23)
T4 sequence (peptide): TLNDKASKAIDRQ

T5: Peptide 11 (SPOTs 13-mer of C-terminal Bves) (UniProt Q9DG23)
T5 sequence (peptide): NDPTLNDKASKKI

T6: Peptide 2 (SPOTs 13-mer of C-terminal Bves) (UniProt Q9DG23)
T6 sequence (peptide): FLETEPFLYEIFK

T7: Peptide 12 with lysine 272 substituted with alanine (UniProt Q9DG23)
T7 sequence (peptide): TLNDKASAKIDRQ

T8: Peptide 13 (SPOTs 13-mer of C-terminal Bves) (UniProt Q9DG23)
T8 sequence (peptide): DKASKKIDRQPSL

T9: GST N-terminal Bves (UniProt Q9DG23)
T9 sequence: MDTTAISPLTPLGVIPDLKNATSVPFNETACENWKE


Assays:
[1] = target: T1, GST C-terminal Bves; assay: pull-down; bacterial lysates of GST fusion proteins mixed with lysates of COS-7 cells transfected with Flag-tagged Bves, overnight at 4°C; glutathione beads four hours at 4°C; washed three times with PBS; Western blot with anti-Flag
[2] = target: T2, Peptide 12: …; assay: peptide or protein array; SPOTs: 13-mer peptides fixed on a cellulose membrane; Flag-tagged Bves from transfected COS-7 cells pre-incubated with anti-Flag antibody, on the membrane three hours at room temperature, washed in TBST, HRP secondary antibody, chemiluminescence; second membrane with alanine substitutions of peptide 12 treated identically; only the target purified
[3] = target: T3, Peptide 10 (SPOTs 13-mer of C-terminal Bves); assay: as above
[4] = target: T4, Peptide 12 with lysine 273 substituted with alanine; assay: as above
[5] = target: T5, Peptide 11 (SPOTs 13-mer of C-terminal Bves); assay: as above
[6] = target: T6, Peptide 2 (SPOTs 13-mer of C-terminal Bves); assay: as above
[7] = target: T7, Peptide 12 with lysine 272 substituted with alanine; assay: as above
[8] = target: T8, Peptide 13 (SPOTs 13-mer of C-terminal Bves); assay: as above
[9] = target: T9, GST N-terminal Bves; assay: pull-down; bacterial lysates of GST fusion proteins mixed with lysates of COS-7 cells transfected with Flag-tagged Bves, overnight at 4°C; glutathione beads four hours at 4°C; washed three times with PBS; Western blot with anti-Flag

| binding [1] | binding [2] | binding [3] | binding [4] | binding [5] | binding [6] | binding [7] | binding [8] | binding [9] | Binder |
| --- | --- | --- | --- | --- | --- | --- | --- | --- | --- |
| binds |  |  |  |  |  |  |  |  | Del-5 Bves (domain or fragment, UniProt Q9DG23 1-309) MDTTAISPLTPLGVIPDLKNATSVPFNETACENWKEIHHLVFHVANICFAAGLVIPTTLNLHMIFLRGLLTVGCALFIIWATLYRCALDIMIWNSVFLVVNLLHFIYLVYKRRPIKIEKELSSLYKRMFEPLHVPPELFQRLTGQFCNIQTLKTGQAYAAEDKTSVDDRLSILLKGKMKVSYRGHFLHNIYPCAFIDSPEFRSTQMNRGEKFQVTIIADDNCKFLCWSRERLTYFLETEPFLYEIFKYLIGKDITNKLYSLNDPTLNDKASKKIDRQPSLCSQLSVMQMRNSMASTSDSEDGLQMFLRG |
| binds | binds | no binding | no binding | binds | no binding | no binding | binds | no binding | Flag-tagged Wild Type (WT) Bves (protein, UniProt Q9DG23 1-357) MDTTAISPLTPLGVIPDLKNATSVPFNETACENWKEIHHLVFHVANICFAAGLVIPTTLNLHMIFLRGLLTVGCALFIIWATLYRCALDIMIWNSVFLVVNLLHFIYLVYKRRPIKIEKELSSLYKRMFEPLHVPPELFQRLTGQFCNIQTLKTGQAYAAEDKTSVDDRLSILLKGKMKVSYRGHFLHNIYPCAFIDSPEFRSTQMNRGEKFQVTIIADDNCKFLCWSRERLTYFLETEPFLYEIFKYLIGKDITNKLYSLNDPTLNDKASKKIDRQPSLCSQLSVMQMRNSMASTSDSEDGLQMFLRGTSSSSSLRPGRTSPYLRTSAKMKPIEESVEDDVFEAPSAEKLELQRLP |
| binds |  |  |  |  |  |  |  | no binding | WT Bves protein devoid of glycosylation products (protein, UniProt Q9DG23 1-357, devoid of glycosylation products (tunicamycin)) MDTTAISPLTPLGVIPDLKNATSVPFNETACENWKEIHHLVFHVANICFAAGLVIPTTLNLHMIFLRGLLTVGCALFIIWATLYRCALDIMIWNSVFLVVNLLHFIYLVYKRRPIKIEKELSSLYKRMFEPLHVPPELFQRLTGQFCNIQTLKTGQAYAAEDKTSVDDRLSILLKGKMKVSYRGHFLHNIYPCAFIDSPEFRSTQMNRGEKFQVTIIADDNCKFLCWSRERLTYFLETEPFLYEIFKYLIGKDITNKLYSLNDPTLNDKASKKIDRQPSLCSQLSVMQMRNSMASTSDSEDGLQMFLRGTSSSSSLRPGRTSPYLRTSAKMKPIEESVEDDVFEAPSAEKLELQRLP |

Second part, the binder before the results:

| Binder | binding [1] | binding [2] | binding [3] | binding [4] | binding [5] | binding [6] | binding [7] | binding [8] | binding [9] |
| --- | --- | --- | --- | --- | --- | --- | --- | --- | --- |
| Del-3 Bves (domain or fragment, UniProt Q9DG23 1-251) MDTTAISPLTPLGVIPDLKNATSVPFNETACENWKEIHHLVFHVANICFAAGLVIPTTLNLHMIFLRGLLTVGCALFIIWATLYRCALDIMIWNSVFLVVNLLHFIYLVYKRRPIKIEKELSSLYKRMFEPLHVPPELFQRLTGQFCNIQTLKTGQAYAAEDKTSVDDRLSILLKGKMKVSYRGHFLHNIYPCAFIDSPEFRSTQMNRGEKFQVTIIADDNCKFLCWSRERLTYFLETEPFLYEIFKYLIG | no binding | no binding |  |  | no binding |  |  | no binding |  |
| Del-4 Bves (domain or fragment, UniProt Q9DG23 1-284) MDTTAISPLTPLGVIPDLKNATSVPFNETACENWKEIHHLVFHVANICFAAGLVIPTTLNLHMIFLRGLLTVGCALFIIWATLYRCALDIMIWNSVFLVVNLLHFIYLVYKRRPIKIEKELSSLYKRMFEPLHVPPELFQRLTGQFCNIQTLKTGQAYAAEDKTSVDDRLSILLKGKMKVSYRGHFLHNIYPCAFIDSPEFRSTQMNRGEKFQVTIIADDNCKFLCWSRERLTYFLETEPFLYEIFKYLIGKDITNKLYSLNDPTLNDKASKKIDRQPSLCSQL | binds |  |  |  |  |  |  |  |  |
